# Assay results published in PubChem BioAssay (Tox21).
# Values joined by “and” are separate entries in the source; they are usually repeats but may differ in a detail not shown here. Equal values may be shown once. Active and inactive are the calls of the source. Unless noted, calls follow the shape of the dose curve; as a rule, active = well fitted curve in the direction sought with a large enough effect in the repeat runs; inconclusive = weak or mixed curves; inactive = no such curve, though single readings can be large; an effect the other way counts as inactive or inconclusive.
# Tests used:
# [1] = qHTS assay to identify small molecule antagonists of the thyroid receptor (TR) signaling pathway - cell viability counter screen (AID 743064); conditions: GH3.TRE-Luc viability, CellTiter-Fluor, 24 h; activity change, negative = cytotoxic: at 70.3 µM (top of the series); also: nearly all actives have a fitted effect of over 50% in size
# In short: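 GH3.TRE-Luc rat pituitary cells dosed after 4 hr plating, co-stimulated with T3 at 1 nM final, incubated 23.5 h at 37 C. Viability measured in the same wells by CellTiter-Fluor fluorescence after 30 min further at 37 C.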
# [2] = qHTS assay to identify small molecule antagonists of the thyroid receptor (TR) signaling pathway (AID 743065); also: nearly all actives have a fitted effect of over 55% in size
# In short: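 Antagonism measured as loss of luciferase signal in GH3 cells stably carrying a TRE-luciferase reporter, co-treated with compound and T3 (1 nM final) for 23.5 h at 37 C. Viability was read in the same well by CellTiter-Fluor.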
# [3] = tested on: thyroid hormone receptor (rat, GH3 cells); assay: qHTS assay to identify small molecule agonists of the thyroid receptor (TR) signaling pathway (AID 743066; calls by dose curve; as to activation: % is scaled to controls: 0 for no effect and ±100 for the full control effect); conditions: GH3.TRE-Luc cells, TR agonist luciferase, 24 h; activation: at 83.9 µM (top of the series) unless noted
# [4] = molecular target: Estrogen receptor (Homo sapiens) (UniProt P03372); assay: qHTS assay to identify small molecule antagonists of the estrogen receptor alpha (ER-alpha) signaling pathway (AID 743069; active = well fitted curve in the direction sought with a large enough effect in the signal ratio in the repeat runs, not every such curve was filed as active; inconclusive = weak or mixed curves, or effect the other way; inactive = no such curve, though single readings can be large or run the other way; the % refers to the signal ratio; as to activity, negative = inhibition: % is scaled to controls: 0 for no effect and ±100 for the full control effect); conditions: HEK293 ER-alpha-UAS-bla, beta-lactamase ratio, antagonist mode; activity, negative = inhibition: at 69.4 µM (top of the series)
# UniProt P03372, sequence (P03372 whole entry, looked up): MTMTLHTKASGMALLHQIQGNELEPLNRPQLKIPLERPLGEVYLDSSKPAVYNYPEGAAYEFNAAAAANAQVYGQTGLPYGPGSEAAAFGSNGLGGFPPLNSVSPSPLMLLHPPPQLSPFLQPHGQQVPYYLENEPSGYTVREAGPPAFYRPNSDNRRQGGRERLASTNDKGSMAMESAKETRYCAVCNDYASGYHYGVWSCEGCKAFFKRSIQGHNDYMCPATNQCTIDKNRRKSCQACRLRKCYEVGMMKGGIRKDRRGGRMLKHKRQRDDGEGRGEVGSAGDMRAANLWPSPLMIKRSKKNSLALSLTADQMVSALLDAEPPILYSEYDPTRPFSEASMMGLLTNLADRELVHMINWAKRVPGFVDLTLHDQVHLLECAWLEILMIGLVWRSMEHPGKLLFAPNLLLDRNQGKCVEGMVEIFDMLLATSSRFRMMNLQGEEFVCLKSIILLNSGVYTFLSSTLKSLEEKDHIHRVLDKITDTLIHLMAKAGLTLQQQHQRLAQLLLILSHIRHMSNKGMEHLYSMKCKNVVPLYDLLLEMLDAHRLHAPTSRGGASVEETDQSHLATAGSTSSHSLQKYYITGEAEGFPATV
# In short: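 Fluorescence intensity from a beta-lactamase FRET substrate served as the read-out. Cells: HEK293 with stably integrated ER-alpha-UAS-bla reporter. Agonist 17beta-estradiol was co-added with compounds; incubation 18 hr at 37C, substrate 2 hr at room temperature.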
# [5] = qHTS assay to identify small molecule antagonists of the estrogen receptor alpha (ER-alpha) signaling pathway - cell viability counter screen (AID 743074; calls by dose curve; also: nearly all actives have a fitted effect of over 45% in size)
# [6] = molecular target: Estrogen receptor (Homo sapiens) (UniProt P03372); assay: qHTS assay to identify small molecule agonists of the estrogen receptor alpha (ER-alpha) signaling pathway (AID 743075; calls by dose curve); conditions: HEK293 ER-alpha-UAS-bla, beta-lactamase FRET ratio, 18 h
# [7] = molecular target: Estrogen receptor (Homo sapiens) (UniProt P03372); assay: qHTS assay to identify small molecule agonists of the estrogen receptor alpha (ER-alpha) signaling pathway using the BG1 cell line (AID 743079); conditions: BG1Luc4E2 cells, ERE-luciferase agonist, 22 h; also: nearly all actives have a fitted effect of over 20% in size; as to activation: % is scaled to controls: 0 for no effect and ±100 for the full control effect
# [8] = qHTS assay to identify small molecule antagonists of the estrogen receptor alpha (ER-alpha) signaling pathway using the BG1 cell line - cell viability counter screen (AID 743081);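 also: compound given together with 17beta-estradiol as the ER stimulus; nearly all actives have a fitted effect of over 45% in size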
# [9] = qHTS assay to identify aromatase inhibitors - cell viability counter screen (AID 743084);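 also: cells stimulated with testosterone during compound exposure; nearly all actives have a fitted effect of over 55% in size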
# [10] = molecular target: Peroxisome proliferator-activated receptor gamma (Homo sapiens) (UniProt P37231); assay: qHTS assay to identify small molecule agonists of the peroxisome proliferator-activated receptor gamma (PPARg) signaling pathway (AID 743094; active = well fitted activation curve with a large enough effect in the signal ratio in the repeat runs, not every such curve was filed as active; inconclusive = weak or mixed curves, or effect the other way; inactive = no such curve, though single readings can be large or run the other way; the % refers to the signal ratio; as to activation: % is scaled to controls: 0 for no effect and ±100 for the full control effect); conditions: HEK293H PPARg-UAS-bla, beta-lactamase FRET ratio, 17 h; activation: at 57 µM (top of the series) unless noted
# UniProt P37231, sequence (P37231 whole entry, looked up): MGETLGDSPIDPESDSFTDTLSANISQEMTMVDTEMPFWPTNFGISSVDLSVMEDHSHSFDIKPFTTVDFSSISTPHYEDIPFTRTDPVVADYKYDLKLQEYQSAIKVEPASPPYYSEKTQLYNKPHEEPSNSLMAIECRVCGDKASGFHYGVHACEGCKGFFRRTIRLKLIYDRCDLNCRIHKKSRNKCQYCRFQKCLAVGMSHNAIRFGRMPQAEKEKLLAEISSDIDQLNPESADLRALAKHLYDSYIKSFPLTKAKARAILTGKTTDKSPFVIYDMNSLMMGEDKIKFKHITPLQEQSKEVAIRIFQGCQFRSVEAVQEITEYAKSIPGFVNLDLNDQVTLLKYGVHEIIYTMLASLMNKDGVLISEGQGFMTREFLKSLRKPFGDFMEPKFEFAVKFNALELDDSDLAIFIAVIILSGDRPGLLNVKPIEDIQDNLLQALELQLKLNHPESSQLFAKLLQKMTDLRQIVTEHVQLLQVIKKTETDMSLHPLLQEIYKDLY
# In short: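 Cell-based bla reporter, HEK293H background, PPARg-driven UAS. Pre-incubation 5 h, 37C, 5% CO2. Compound 17 h, 37C. Substrate 1 h RT; fluorescence.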
# [11] = qHTS assay to identify small molecule antagonists of the estrogen receptor alpha (ER-alpha) signaling pathway using the BG1 cell line (AID 743080; calls by dose curve;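 also: BG1 cells stimulated with 17beta-estradiol alongside compound; nearly all actives have a fitted effect of over 25% in size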); conditions: BG1Luc4E2 ERE-luciferase antagonist mode, luminescence; activity change, negative = inhibition: at 70.3 µM (top of the series) unless noted
# In short: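 Readout is ONE-Glo luminescence, taken 30 min at room temperature after reagent addition, preceded by a CellTiter-Fluor viability read; BG1-Luc-4E2 cells had received compound and 17beta-estradiol for 21.5 h at 37 C.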
# [12] = molecular target: Peroxisome proliferator-activated receptor gamma (Homo sapiens) (UniProt P37231); assay: qHTS assay to identify small molecule antagonists of the peroxisome proliferator-activated receptor gamma (PPARg) signaling pathway (AID 743191; calls by dose curve; also: nearly all actives have a fitted effect of over 30% in size); conditions: HEK293H PPARg-UAS-bla, beta-lactamase ratio, antagonist, 17 h
# In short: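 Beta-lactamase reporter under UAS control in HEK293H PPARg-bla cells; compound treatment 17 h at 37C. Read-out: fluorescence intensity after 1 h room-temperature incubation with LiveBLAzer B/G FRET substrate.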
# [13] = molecular target: Aromatase (Homo sapiens) (UniProt P11511); assay: qHTS assay to identify aromatase inhibitors (AID 743083); also: nearly all actives have a fitted effect of over 55% in size
# UniProt P11511, sequence (P11511 whole entry, looked up): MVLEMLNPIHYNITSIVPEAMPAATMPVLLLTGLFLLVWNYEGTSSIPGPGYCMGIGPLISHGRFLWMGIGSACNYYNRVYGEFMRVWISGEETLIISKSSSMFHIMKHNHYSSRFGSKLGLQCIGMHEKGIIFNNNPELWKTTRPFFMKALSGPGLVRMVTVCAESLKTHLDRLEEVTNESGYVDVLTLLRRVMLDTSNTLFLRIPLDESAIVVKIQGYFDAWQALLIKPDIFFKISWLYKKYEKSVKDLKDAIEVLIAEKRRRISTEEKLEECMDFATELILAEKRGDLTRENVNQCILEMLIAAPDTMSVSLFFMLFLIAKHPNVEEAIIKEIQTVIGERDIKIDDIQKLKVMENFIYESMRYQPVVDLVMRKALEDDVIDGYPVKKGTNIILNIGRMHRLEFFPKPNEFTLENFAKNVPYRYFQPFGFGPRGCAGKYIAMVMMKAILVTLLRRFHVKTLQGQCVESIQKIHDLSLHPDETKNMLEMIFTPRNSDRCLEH
# [14] = molecular target: Aryl hydrocarbon receptor (Homo sapiens) (UniProt P35869); assay: qHTS assay to identify small molecule that activate the aryl hydrocarbon receptor (AhR) signaling pathway (AID 743085); also: nearly all actives have a fitted effect of over 15% in size
# UniProt P35869, sequence (P35869 whole entry, looked up): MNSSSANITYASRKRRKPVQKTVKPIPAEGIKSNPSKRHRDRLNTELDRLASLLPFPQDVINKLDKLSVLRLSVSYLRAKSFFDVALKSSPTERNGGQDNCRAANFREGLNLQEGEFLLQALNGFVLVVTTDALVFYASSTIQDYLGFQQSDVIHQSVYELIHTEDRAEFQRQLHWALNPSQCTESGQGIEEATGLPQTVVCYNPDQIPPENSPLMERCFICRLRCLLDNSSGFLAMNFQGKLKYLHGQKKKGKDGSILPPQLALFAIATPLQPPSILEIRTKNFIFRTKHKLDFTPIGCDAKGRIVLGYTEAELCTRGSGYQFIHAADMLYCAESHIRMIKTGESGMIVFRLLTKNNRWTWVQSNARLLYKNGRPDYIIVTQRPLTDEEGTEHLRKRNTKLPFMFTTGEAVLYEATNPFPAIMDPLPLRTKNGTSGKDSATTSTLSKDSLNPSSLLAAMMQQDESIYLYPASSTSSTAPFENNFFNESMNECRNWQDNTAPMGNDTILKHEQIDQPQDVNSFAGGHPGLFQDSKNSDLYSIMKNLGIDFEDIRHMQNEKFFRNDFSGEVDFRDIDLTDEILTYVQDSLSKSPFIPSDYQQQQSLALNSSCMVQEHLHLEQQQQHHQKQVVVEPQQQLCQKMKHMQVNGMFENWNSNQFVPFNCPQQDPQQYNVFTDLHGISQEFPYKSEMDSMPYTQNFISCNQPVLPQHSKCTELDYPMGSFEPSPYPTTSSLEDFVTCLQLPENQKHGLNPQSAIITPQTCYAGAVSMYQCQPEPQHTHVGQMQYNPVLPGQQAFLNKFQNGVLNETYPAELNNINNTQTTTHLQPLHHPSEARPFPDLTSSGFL
# In short: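 HepG2 cells stably carrying a 20-DRE firefly luciferase reporter (HG2L7.5c1) treated with compound for 24 hr at 37C. Luciferase read by ONE-Glo luminescence, with CellTiter-Fluor viability read first.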
# [15] = qHTS assay to identify small molecule that activate the aryl hydrocarbon receptor (AhR) signaling pathway - cell viability counter screen (AID 743086); also: nearly all actives have a fitted effect of over 45% in size
# In short: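 Cytotoxicity counter screen: CellTiter-Fluor signal (30 min, 37 C) in 4000 HepG2 cells/well carrying the DRE-luciferase reporter, following 24 h compound exposure at 37 C.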
# [16] = activation: at 70.1 µM (top of the series)
# [17] = activation: at 70.3 µM (top of the series) unless noted
# [18] = ratio activity, negative = inhibition: at 62.6 µM (top of the series) unless noted
# Potency is read from the fitted curve at half-maximal effect; tags tell the direction and shape of the fitted curve or compound fluorescence and quenching.
smiles,measurement,setting,value
CCC(C)(c1ccc(O)cc1)c1ccc(O)cc1,Potency,[1],"inconclusive: 68.5 µM [cytotoxic, single point] and inconclusive: 68.6 µM [cytotoxic, single point]"
same,Potency,[2],"inconclusive: 68.6 µM [inhibitor, single point]"
same,activation,[3],inconclusive: -8.75% [phenotype inactive]
same,Potency,[4],active: 616 nM [inconclusive] and active: 309 nM [inconclusive]
same,Potency,[5],"inconclusive: 61.6 µM [cytotoxic, single point]"
same,Potency,[6]; [16],active: 195 nM [inconclusive] and active: 1.95 µM [inconclusive]
same,Potency,[7]; [17],active: 243 nM and active: 273 nM
same,Potency,[8],inactive
same,Potency,[9],"inconclusive: 68.5 µM [cytotoxic, single point]"
same,activation,[10],inconclusive: -13.9% and inconclusive: -10.4%
OC(c1ccc(Cl)cc1)(c1ccc(Cl)cc1)C(Cl)(Cl)Cl,Potency,[1],"inconclusive: 68.6 µM [cytotoxic, single point]"
same,Potency,[2],"inconclusive: 68.6 µM [inhibitor, single point]"
same,Potency,[3],inactive
same,Potency,[4],"inconclusive: 43.6 µM [rising, partial curve, poor fit]"
same,Potency,[6]; [16],inconclusive: 54.9 µM
same,activation,[7]; [17],inconclusive: -9.68% [phenotype inactive]
same,Potency,[11],"inconclusive: 68.6 µM [falling, single point]"
same,Potency,[10],inconclusive: 54.9 µM [single point]
same,Potency,[12]; [18],inconclusive: 54.9 µM [cytotoxic]
O=C/C(Cl)=C(/Cl)C(=O)O,Potency,[1],"inconclusive: 68.5 µM [cytotoxic, single point] and inconclusive: 68.6 µM [cytotoxic, single point]"
same,Potency,[2],"inconclusive: 68.5 µM [inhibitor, single point]"
same,Potency,[4],"inconclusive: 61.6 µM [fluorescent, single point]"
same,"activity, negative = inhibition",[4],inconclusive: 29%
same,Potency,[13],"inconclusive: 76.9 µM [inhibitor, single point] and inconclusive: 68.6 µM [inhibitor, single point]"
same,Potency,[9],"inconclusive: 68.5 µM [cytotoxic, single point] and inconclusive: 68.6 µM [cytotoxic, single point]"
same,Potency,[10],"inconclusive: 54.9 µM [fluorescent, single point] and inconclusive: 61.7 µM [fluorescent, partial curve, poor fit]"
same,Potency,[12]; [18],inconclusive: 61.6 µM [single point] and inconclusive: 54.9 µM [single point]
O=C(O)C1C2CCC(O2)C1C(=O)O (configuration not stated),Potency,[1],inconclusive: 70.5 µM [cytotoxic]
same,Potency,[2],"inconclusive: 69.4 µM [inhibitor, single point] and inconclusive: 62.8 µM [inhibitor, single point]"
same,Potency,[5],inconclusive: 50.4 µM
same,Potency,[8],"inconclusive: 56 µM [rising, single point]"
ClC1=C(Cl)[C@]2(Cl)[C@@H]3[C@H]4C[C@H]([C@@H]5O[C@H]45)[C@@H]3[C@@]1(Cl)C2(Cl)Cl,Potency,[1],"inconclusive: 33.5 µM [cytotoxic, single point] and inconclusive: 43.2 µM [cytotoxic, partial curve]"
same,Potency,[2],"inconclusive: 23.7 µM [inhibitor, partial curve, poor fit] and inconclusive: 68.5 µM [inhibitor, single point]"
same,Potency,[4],"inconclusive: 4.89 µM [activator, full curve, poor fit]"
same,Potency,[6]; [16],inactive
same,activation,[7]; [17],inconclusive: 20.3% [phenotype inactive]
same,activation,[7]; at 70.3 µM (top of the series),inactive: 13.3%
same,activation,[10],inconclusive: 4.1%
Nc1ccc([As](=O)(O)O)cc1,Potency,[1],"inconclusive: 33.4 µM [cytotoxic, single point]"
same,Potency,[2],"inconclusive: 33.4 µM [inhibitor, single point]"
same,activation,[6]; [16],inconclusive: 1.79% [phenotype inactive]
same,activation,[6]; at 70.1 µM (top of the series),inactive: -2.86% and inactive: -1.39%
same,Potency,[9],"inconclusive: 33.4 µM [cytotoxic, partial curve, poor fit]"
same,Potency,[10],inactive
same,"ratio activity, negative = inhibition",[12]; at 62.6 µM (top of the series),inactive: -2.85% and inactive: 1.81%
same,"ratio activity, negative = inhibition",[12]; [18],inconclusive: 10.7%
COC(=O)NC(=S)Nc1ccccc1NC(=S)NC(=O)OC,Potency,[1],"inconclusive: 0.611 µM [rising, single point]"
same,Potency,[2],inconclusive: 77 µM [inhibitor]
same,Potency,[4],"inconclusive: 54.9 µM [activator, partial curve]"
same,activation,[7]; [17],inconclusive: -1.67% [phenotype inactive]
same,Potency,[14],"inconclusive: 68.6 µM [activator, single point] and inconclusive: 68.6 µM [activator, partial curve, poor fit]"
same,"ratio activity, negative = inhibition",[12]; [18],inconclusive: 0.273%
CCC(C)(C)c1ccc(O)cc1,Potency,[1],"inconclusive: 29.8 µM [cytotoxic, partial curve, poor fit] and inconclusive: 68.6 µM [cytotoxic, single point]"
same,Potency,[2],"inconclusive: 77.7 µM [inhibitor, partial curve, poor fit] and inconclusive: 61.1 µM [inhibitor, single point]"
same,activation,[7]; [17],inconclusive: 22.4% [phenotype inactive]
same,"activity change, negative = inhibition",[11],inconclusive: -12.9% [at 95 µM]
same,Potency,[9],"inconclusive: 27.6 µM [cytotoxic, full curve] and inconclusive: 68.6 µM [cytotoxic, single point]"
OC(c1ccccc1)(c1ccccc1)C1CCNCC1,Potency,[1],"inconclusive: 12.7 µM [cytotoxic, single point]"
same,Potency,[2],"inconclusive: 12.7 µM [inhibitor, single point]"
O=[N+]([O-])c1cc(C(F)(F)F)c(Cl)c([N+](=O)[O-])c1Cl,Potency,[1],active: 0.611 µM
same,Potency,[2],active: 0.386 µM
same,Potency,[3],"inconclusive: 6.11 µM [inhibitor, partial curve, poor fit]"
same,Potency,[4],inconclusive: 54.9 µM
same,Potency,[5],active: 54.9 µM
same,Potency,[6]; [16],inconclusive: 61.6 µM
same,Potency,[7]; [17],"inconclusive: 61.1 µM [inhibitor, single point]"
same,Potency,[11],"inconclusive: 68.6 µM [falling, single point]"
same,Potency,[8],active: 61.1 µM
same,Potency,[13],active: 1.22 µM
same,Potency,[9],active: 3.06 µM
same,Potency,[10],"inconclusive: 2.75 µM [rising, partial curve]"
CC1(C)C(C(=O)OC(C#N)c2cccc(Oc3ccccc3)c2)C1(C)C (configuration not stated),Potency,[1],"inconclusive: 77.5 µM [cytotoxic, partial curve, poor fit]"
same,Potency,[2],"inconclusive: 69.1 µM [inhibitor, single point] and inconclusive: 68.5 µM [inhibitor, single point]"
same,"activity, negative = inhibition",[4],inconclusive: -32.7%
same,Potency,[7]; [17],"inconclusive: 69.1 µM [inhibitor, single point] and inconclusive: 27.3 µM [activator, single point]"
same,Potency,[12]; [18],inactive
O=C(O)COc1nc(Cl)c(Cl)cc1Cl,Potency,[1],inconclusive: 55.8 µM
same,Potency,[5],"inconclusive: 22.4 µM [cytotoxic, single point]"
same,Potency,[6]; [16],inactive
same,Potency,[9],"inconclusive: 19.8 µM [rising, partial curve, poor fit]"
same,Potency,[15],"inconclusive: 35.2 µM [rising, partial curve, poor fit]"
same,Potency,[10],inconclusive: 50.1 µM [activator]
same,"ratio activity, negative = inhibition",[12]; [18],inconclusive: -28.7% [at 81.1 µM]
O=CC(Br)(Br)Br,Potency,[1],active: 19.3 µM
same,Potency,[4],"inconclusive: 48.8 µM [rising, partial curve]"
same,Potency,[5],"inconclusive: 54.8 µM [cytotoxic, single point]"
same,Potency,[6]; [16],active: 21.8 µM [inconclusive]
same,Potency,[7]; [17],inconclusive: 68.4 µM [activator]
same,Potency,[11],"inconclusive: 21.6 µM [rising, partial curve]"
same,Potency,[8],inactive
same,Potency,[13],active: 10.8 µM
same,Potency,[10],inconclusive: 10.9 µM
same,Potency,[12]; [18],inconclusive: 10.9 µM
Cc1ccc(N=C=O)cc1N=C=O,"activity change, negative = cytotoxic",[1],inconclusive: 31.9%
same,Potency,[3],inactive
same,Potency,[5],"inconclusive: 11 µM [rising, full curve, poor fit]"
same,Potency,[12]; [18],inactive
